# The source made the active and inactive calls. A call without a number means that no potency is given here. Unless noted, calls come from the whole dose curve; as a rule, active = well fitted curve in the direction sought with a large enough effect in the repeat runs; inconclusive = weak or mixed curves; inactive = no such curve, though single readings can be large; an effect the other way counts as inactive or inconclusive.
# Tests used:
# [1] = qHTS assay to identify small molecule antagonists of the thyroid receptor (TR) signaling pathway (AID 743065); note: potency is the fitted concentration of half-maximal effect; nearly all actives have a fitted effect of over 55% in size
# How it was run: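 Antagonism measured as loss of luciferase signal in GH3 cells stably carrying a TRE-luciferase reporter, co-treated with compound and T3 (1 nM final) for 23.5 h at 37 C. Viability was read in the same well by CellTiter-Fluor.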
# [2] = qHTS assay for small molecules that induce genotoxicity in human embryonic kidney cells expressing luciferase-tagged ATAD5 (AID 651632); note: potency is the fitted concentration of half-maximal effect; nearly all actives have a fitted effect of over 15% in size
# How it was run: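 Quantitative HTS in HEK293T expressing luciferase-tagged ATAD5, whose levels rise upon DNA damage. Exposure ran 16 hr at 37C and 5% CO2, with luminescence read 30 min after Amplite addition at room temperature.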
# [3] = qHTS assay for small molecule agonists of the p53 signaling pathway - cell viability (AID 651633; calls by dose curve; note: potency is the fitted concentration of half-maximal effect; nearly all actives have a fitted effect of over 30% in size)
# How it was run: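 Viability counter-read: CellTiter-Glo luminescence (30 min, room temperature) in the same p53RE-bla plates. These plates had been exposed to compounds for 16 h at 37 C.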
# [4] = biological target: Androgen receptor (Homo sapiens) (UniProt P10275); experiment: qHTS assay to identify small molecule antagonists of the androgen receptor (AR) signaling pathway (AID 743035; active = well fitted inhibition curve with a large enough effect in the signal ratio in the repeat runs, not every such curve was filed as active; inconclusive = weak or mixed curves, or effect the other way; inactive = no such curve, though single readings can be large or run the other way; the % refers to the signal ratio; note: potency is the fitted concentration of half-maximal effect); settings: HEK293 AR-UAS-bla, R1881-stimulated, beta-lactamase FRET, 16 h; activity change, negative = inhibition: at 58.5 µM (top of the series) unless noted
# How it was run: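 Quantitative HTS of the Tox21 10K library used HEK293 AR-UAS-bla cells stimulated with R1881 alongside compound for 16 h at 37C, followed by beta-lactamase FRET detection (LiveBLAzer B/G, 2 h, RT).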
# [5] = biological target: Androgen receptor (Homo sapiens) (UniProt P10275); experiment: qHTS assay to identify small molecule agonists of the androgen receptor (AR) signaling pathway (AID 743036; active = well fitted activation curve with a large enough effect in the signal ratio in the repeat runs, with a control signal flat, not every such curve was filed as active; inconclusive = weak or mixed curves, or effect the other way; inactive = no such curve, though single readings can be large or run the other way; the % refers to the signal ratio; note: potency is the fitted concentration of half-maximal effect); settings: HEK293 AR-UAS-bla GripTite, beta-lactamase FRET ratio, 16 h; activation: at 62.4 µM (top of the series) unless noted
# How it was run: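 Quantitative HTS of the Tox21 10K library in HEK293 cells bearing a stably integrated UAS-controlled beta-lactamase reporter. Compound exposure lasted 16 h at 37C. Reporter activity was detected by FRET substrate fluorescence after 2 h at room temperature.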
# [6] = qHTS assay to identify small molecule that activate the aryl hydrocarbon receptor (AhR) signaling pathway - cell viability counter screen (AID 743086); note: potency is the fitted concentration of half-maximal effect; nearly all actives have a fitted effect of over 45% in size
# How it was run: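 Cytotoxicity counter screen: CellTiter-Fluor signal (30 min, 37 C) in 4000 HepG2 cells/well carrying the DRE-luciferase reporter, following 24 h compound exposure at 37 C.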
# [7] = biological target: Aryl hydrocarbon receptor (Homo sapiens) (UniProt P35869); experiment: qHTS assay to identify small molecule that activate the aryl hydrocarbon receptor (AhR) signaling pathway (AID 743085); note: potency is the fitted concentration of half-maximal effect; nearly all actives have a fitted effect of over 15% in size
# How it was run: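 Compounds were tested in HepG2 hepatocellular carcinoma cells harbouring a stably integrated luciferase gene under control of 20 DREs. Increased reporter signal after 24 h treatment at 37C was taken as AhR activation.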
# [8] = biological target: Estrogen receptor (Homo sapiens) (UniProt P03372); experiment: qHTS assay to identify small molecule agonists of the estrogen receptor alpha (ER-alpha) signaling pathway (AID 743075; calls by dose curve;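 note: HEK293 GripTite cells with ER-alpha and UAS-driven beta-lactamase reporter; potency is the fitted concentration of half-maximal effect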); settings: HEK293 ER-alpha-UAS-bla, beta-lactamase FRET ratio, 18 h; activation: at 70.1 µM (top of the series)
# Aromatase (Homo sapiens) = Aromatase (Homo sapiens) (UniProt P11511); experiment: qHTS assay to identify aromatase inhibitors (AID 743083); note: potency is the fitted concentration of half-maximal effect; nearly all actives have a fitted effect of over 55% in size
# [9] = biological target: Peroxisome proliferator-activated receptor gamma (Homo sapiens) (UniProt P37231); experiment: qHTS assay to identify small molecule antagonists of the peroxisome proliferator-activated receptor gamma (PPARg) signaling pathway (AID 743191; calls by dose curve; note: nearly all actives have a fitted effect of over 30% in size); settings: HEK293H PPARg-UAS-bla, beta-lactamase ratio, antagonist, 17 h; ratio activity, negative = inhibition: at 62.6 µM (top of the series) unless noted
# How it was run: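 Beta-lactamase reporter under UAS control in HEK293H PPARg-bla cells; compound treatment 17 h at 37C. Read-out: fluorescence intensity after 1 h room-temperature incubation with LiveBLAzer B/G FRET substrate.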
# [10] = biological target: Cytochrome P450 1A2 (Homo sapiens) (UniProt P05177); experiment: Cytochrome P450 Family 1 Subfamily A Member 2 (CYP1A2) small molecule antagonists: luciferase reporter qHTS assay (AID 1671199); note: nearly all actives have a fitted effect of over 50% in size
# How it was run: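 Steps: enzyme-substrate mix dispensed; test compounds and furafylline control pinned in; 10 min room temperature; NADPH regeneration solution added, 1 h; reaction stopped with luciferin detection reagent; luminescence read after 20 min.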
# [11] = qHTS assay for small molecule disruptors of the mitochondrial membrane potential - cell viability (AID 720634; calls by dose curve;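 note: human HepG2 liver cancer cells; nearly all actives have a fitted effect of over 20% in size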)
# How it was run: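 ATP-based luminescent viability readout (CellTiter-Glo, 30 min, room temperature) in HepG2 cells multiplexed with the m-MPI membrane potential dye; compound exposure lasted 1 hr at 37 C.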
# [12] = biological target: Androgen receptor (Homo sapiens) (UniProt P10275); experiment: qHTS assay to identify small molecule antagonists of the androgen receptor (AR) signaling pathway using the MDA cell line (AID 743042; note: potency is the fitted concentration of half-maximal effect; nearly all actives have a fitted effect of over 55% in size)
# How it was run: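 Antagonist mode: compounds plus R1881 agonist added to MDA-kb2 AR-luc cells, incubated 16 h at 37C. Luciferase reporter luminescence quantified, with multiplexed CellTiter-Fluor readout for cell viability.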
# Tags give direction and shape of the fitted curve or compound fluorescence and quenching.
# UniProt P10275, sequence (P10275 whole entry, looked up): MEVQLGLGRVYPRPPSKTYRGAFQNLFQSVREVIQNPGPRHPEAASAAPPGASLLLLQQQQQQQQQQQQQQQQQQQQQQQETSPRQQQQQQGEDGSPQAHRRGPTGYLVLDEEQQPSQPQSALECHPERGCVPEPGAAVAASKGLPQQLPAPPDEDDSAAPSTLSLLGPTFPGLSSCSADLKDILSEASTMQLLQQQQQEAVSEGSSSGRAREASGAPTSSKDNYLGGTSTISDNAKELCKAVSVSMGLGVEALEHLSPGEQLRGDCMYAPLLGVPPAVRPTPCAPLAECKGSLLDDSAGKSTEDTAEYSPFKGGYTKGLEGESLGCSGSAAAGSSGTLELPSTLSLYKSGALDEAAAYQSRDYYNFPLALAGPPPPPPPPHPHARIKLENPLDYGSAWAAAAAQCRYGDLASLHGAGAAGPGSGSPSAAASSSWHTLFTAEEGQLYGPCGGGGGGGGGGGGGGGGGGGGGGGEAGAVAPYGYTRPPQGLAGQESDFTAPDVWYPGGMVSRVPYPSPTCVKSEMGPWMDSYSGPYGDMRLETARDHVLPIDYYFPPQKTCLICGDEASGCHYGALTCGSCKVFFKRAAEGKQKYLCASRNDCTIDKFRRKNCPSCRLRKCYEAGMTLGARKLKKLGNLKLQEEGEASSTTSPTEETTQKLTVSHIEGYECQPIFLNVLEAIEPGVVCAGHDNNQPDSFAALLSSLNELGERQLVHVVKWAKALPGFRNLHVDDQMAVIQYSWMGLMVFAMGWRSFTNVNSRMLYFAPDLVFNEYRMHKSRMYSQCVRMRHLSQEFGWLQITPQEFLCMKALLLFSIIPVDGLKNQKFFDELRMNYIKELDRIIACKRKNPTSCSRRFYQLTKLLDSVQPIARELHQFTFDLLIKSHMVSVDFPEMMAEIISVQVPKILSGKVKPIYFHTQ
# UniProt P03372, sequence (P03372 whole entry, looked up): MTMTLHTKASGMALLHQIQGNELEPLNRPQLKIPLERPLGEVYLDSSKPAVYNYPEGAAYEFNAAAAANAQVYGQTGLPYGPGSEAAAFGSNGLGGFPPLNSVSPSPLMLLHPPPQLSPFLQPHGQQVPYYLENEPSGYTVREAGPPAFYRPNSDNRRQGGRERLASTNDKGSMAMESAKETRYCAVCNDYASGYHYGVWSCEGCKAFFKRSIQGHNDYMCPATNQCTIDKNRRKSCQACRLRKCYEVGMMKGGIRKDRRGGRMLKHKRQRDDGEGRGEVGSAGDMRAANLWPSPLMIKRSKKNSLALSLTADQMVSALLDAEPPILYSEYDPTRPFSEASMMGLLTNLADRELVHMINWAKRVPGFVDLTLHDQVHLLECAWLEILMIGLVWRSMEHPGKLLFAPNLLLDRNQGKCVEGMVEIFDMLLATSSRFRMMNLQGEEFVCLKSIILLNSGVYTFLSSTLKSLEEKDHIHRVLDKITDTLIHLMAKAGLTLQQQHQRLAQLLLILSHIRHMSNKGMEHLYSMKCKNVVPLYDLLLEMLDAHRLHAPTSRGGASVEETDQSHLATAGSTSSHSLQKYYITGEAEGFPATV
# UniProt P05177, sequence (P05177 whole entry, looked up): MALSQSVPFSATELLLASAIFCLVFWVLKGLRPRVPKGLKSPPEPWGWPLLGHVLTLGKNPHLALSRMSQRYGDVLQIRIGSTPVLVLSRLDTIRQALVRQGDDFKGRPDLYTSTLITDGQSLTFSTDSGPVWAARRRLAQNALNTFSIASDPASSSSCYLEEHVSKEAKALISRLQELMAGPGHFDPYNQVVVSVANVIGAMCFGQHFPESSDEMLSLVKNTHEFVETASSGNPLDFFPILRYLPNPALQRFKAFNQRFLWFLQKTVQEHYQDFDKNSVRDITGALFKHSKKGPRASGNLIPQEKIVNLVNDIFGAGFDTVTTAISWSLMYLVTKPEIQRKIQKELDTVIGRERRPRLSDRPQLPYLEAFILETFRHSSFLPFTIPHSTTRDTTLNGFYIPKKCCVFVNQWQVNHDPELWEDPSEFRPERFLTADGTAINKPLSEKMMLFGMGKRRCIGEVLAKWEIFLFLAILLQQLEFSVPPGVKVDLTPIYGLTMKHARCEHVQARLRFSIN
# UniProt P35869, sequence (P35869 whole entry, looked up): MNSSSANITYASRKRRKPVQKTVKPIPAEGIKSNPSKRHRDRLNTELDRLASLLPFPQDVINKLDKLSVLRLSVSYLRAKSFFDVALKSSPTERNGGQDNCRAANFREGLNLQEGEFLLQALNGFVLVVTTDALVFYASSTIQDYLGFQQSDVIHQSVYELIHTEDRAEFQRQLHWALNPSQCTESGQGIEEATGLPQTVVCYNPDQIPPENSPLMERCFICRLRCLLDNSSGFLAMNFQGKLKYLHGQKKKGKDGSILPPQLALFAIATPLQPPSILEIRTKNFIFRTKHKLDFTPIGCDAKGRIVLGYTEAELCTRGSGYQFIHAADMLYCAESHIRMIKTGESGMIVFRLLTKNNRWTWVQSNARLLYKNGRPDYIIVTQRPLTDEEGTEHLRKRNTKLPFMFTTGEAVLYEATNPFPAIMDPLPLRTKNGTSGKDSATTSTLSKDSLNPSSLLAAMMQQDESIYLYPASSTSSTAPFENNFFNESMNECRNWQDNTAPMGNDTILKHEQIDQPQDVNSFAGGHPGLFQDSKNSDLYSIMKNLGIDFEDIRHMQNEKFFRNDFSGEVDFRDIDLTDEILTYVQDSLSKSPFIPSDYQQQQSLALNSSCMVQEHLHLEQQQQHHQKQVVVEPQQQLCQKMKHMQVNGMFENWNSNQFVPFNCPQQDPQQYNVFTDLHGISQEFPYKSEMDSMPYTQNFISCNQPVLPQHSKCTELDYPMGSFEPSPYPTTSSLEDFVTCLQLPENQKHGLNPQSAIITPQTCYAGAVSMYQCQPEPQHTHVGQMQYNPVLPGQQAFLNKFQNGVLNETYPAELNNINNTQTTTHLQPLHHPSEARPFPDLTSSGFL
# UniProt P37231, sequence (P37231 whole entry, looked up): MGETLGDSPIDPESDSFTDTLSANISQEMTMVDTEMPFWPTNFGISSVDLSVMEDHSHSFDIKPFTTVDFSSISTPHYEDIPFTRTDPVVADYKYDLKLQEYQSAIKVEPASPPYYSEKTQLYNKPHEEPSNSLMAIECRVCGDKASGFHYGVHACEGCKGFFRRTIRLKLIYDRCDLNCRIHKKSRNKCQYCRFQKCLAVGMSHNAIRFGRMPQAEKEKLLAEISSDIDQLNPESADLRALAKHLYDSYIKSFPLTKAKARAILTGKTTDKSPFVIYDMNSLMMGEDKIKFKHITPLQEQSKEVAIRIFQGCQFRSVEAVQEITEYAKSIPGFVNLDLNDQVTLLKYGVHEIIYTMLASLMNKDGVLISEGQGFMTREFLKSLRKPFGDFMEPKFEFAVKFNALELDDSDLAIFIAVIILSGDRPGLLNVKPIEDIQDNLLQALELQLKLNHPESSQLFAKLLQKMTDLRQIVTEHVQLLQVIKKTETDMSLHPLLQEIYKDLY
# UniProt P11511, sequence (P11511 whole entry, looked up): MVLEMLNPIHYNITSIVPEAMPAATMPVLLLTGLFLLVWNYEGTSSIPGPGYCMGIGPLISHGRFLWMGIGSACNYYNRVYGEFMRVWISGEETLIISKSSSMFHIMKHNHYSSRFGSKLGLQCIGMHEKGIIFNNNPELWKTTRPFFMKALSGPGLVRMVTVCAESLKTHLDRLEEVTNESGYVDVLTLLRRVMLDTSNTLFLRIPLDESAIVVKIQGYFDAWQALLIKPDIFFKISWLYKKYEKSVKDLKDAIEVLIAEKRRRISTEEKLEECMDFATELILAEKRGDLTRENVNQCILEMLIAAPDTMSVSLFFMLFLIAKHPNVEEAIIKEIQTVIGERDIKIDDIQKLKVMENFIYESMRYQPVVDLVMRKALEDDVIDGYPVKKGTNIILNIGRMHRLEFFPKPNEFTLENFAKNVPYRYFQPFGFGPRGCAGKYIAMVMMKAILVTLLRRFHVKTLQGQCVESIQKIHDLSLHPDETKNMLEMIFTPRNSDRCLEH
compound,measurement,setting,value
CO[C@H]1O[C@@H]2O[C@@]3(C)CC[C@H]4[C@H](C)CC[C@@H]([C@H]1C)[C@@]24OO3,Potency,[1],inconclusive [inhibitor]
CN(C)C(=O)CCSC(SCCC(=O)O)c1cccc(/C=C/c2ccc3ccc(Cl)cc3n2)c1 (stereo not drawn),Potency,[2],active: 4.73 µM
same,Potency,[3],active: 29.8 µM
same,Potency,[4],"inconclusive [rising, full curve, poor fit]"
same,Potency,[5],"inconclusive [rising, full curve]"
same,Potency,[6],"inconclusive [falling, single point]"
C=C1CC[C@H](O)CC1=C/C=C1\CCC[C@]2(C)[C@@H]([C@H](C)CC[C@@H](O)C(C)(C)O)CC[C@@H]12,Potency,[7],"inconclusive [activator, partial curve, poor fit]"
C#C[C@]1(O)CC[C@H]2[C@@H]3CCC4=CC(=O)CC[C@@H]4[C@H]3C(=C)C[C@@]21CC,Potency,[8],active: 2.39 µM [inconclusive]
CSc1nc2cc(Oc3cccc(Cl)c3Cl)c(Cl)cc2[nH]1,Potency,[1],active: 8.41 µM
same,Potency,[8],"inconclusive [falling, partial curve]"
same,Potency,Aromatase (Homo sapiens),active: 23.7 µM
same,Potency,[7],"inconclusive [activator, partial curve, poor fit]"
C=C(C)C(=O)OCC(O)CO (stereo not drawn),Potency,[9],inactive
same,Potency,[10],inactive
Cc1cnc(NS(=O)(=O)c2ccc(N)cc2)nc1,"ratio activity, negative = inhibition",[9],inconclusive: -1.48%
same,Potency,[10],inactive
CC(CN1c2ccccc2Sc2cccnc21)N(C)C (stereo not drawn),Potency,[1],"inconclusive [inhibitor, partial curve]"
same,Potency,[8],"inconclusive [falling, partial curve, poor fit]"
C=C(NC(=O)C(=C)NC(=O)c1csc(C2=N[C@@H]3c4csc(n4)[C@H]4NC(=O)c5csc(n5)[C@H]([C@](C)(O)[C@@H](C)O)NC(=O)[C@H]5CSC(=N5)C(=CC)NC(=O)C([C@@H](C)O)NC(=O)c5csc(n5)[C@]3(CC2)NC(=O)[C@H](C)NC(=O)C(=C)NC(=O)[C@H](C)NC(=O)C([C@@H](C)CC)NC2C=Cc3c([C@H](C)O)cc(nc3C2O)C(=O)O[C@@H]4C)n1)C(N)=O (stereo partly drawn),Potency,[11],inactive
same,Potency,[4],"inconclusive [falling, single point]"
same,Potency,[5],inconclusive [fluorescent]
same,Potency,[12],"inconclusive [inhibitor, partial curve]"
same,Potency,[8],"inconclusive [fluorescent, partial curve, poor fit]"
